Measured values: article PMC3475658
These are yes or no findings as the source states them, for the method shown. For part of these data: In cells and extracts the contact can be indirect. Some entries that bind do so weakly or less than the wild type. For part of these data: Where a sequence is shown, tags or fusion partners need not be part of it.

T1: Cdc15 SH3 (aa843–927) (S. pombe) (UniProt Q09822)
T1 sequence: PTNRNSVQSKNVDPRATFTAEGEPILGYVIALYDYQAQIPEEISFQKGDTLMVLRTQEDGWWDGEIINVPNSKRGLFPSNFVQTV

T2: Cdc15 (S. pombe (endogenous in S. pombe cells)) (UniProt Q09822)
T2 sequence: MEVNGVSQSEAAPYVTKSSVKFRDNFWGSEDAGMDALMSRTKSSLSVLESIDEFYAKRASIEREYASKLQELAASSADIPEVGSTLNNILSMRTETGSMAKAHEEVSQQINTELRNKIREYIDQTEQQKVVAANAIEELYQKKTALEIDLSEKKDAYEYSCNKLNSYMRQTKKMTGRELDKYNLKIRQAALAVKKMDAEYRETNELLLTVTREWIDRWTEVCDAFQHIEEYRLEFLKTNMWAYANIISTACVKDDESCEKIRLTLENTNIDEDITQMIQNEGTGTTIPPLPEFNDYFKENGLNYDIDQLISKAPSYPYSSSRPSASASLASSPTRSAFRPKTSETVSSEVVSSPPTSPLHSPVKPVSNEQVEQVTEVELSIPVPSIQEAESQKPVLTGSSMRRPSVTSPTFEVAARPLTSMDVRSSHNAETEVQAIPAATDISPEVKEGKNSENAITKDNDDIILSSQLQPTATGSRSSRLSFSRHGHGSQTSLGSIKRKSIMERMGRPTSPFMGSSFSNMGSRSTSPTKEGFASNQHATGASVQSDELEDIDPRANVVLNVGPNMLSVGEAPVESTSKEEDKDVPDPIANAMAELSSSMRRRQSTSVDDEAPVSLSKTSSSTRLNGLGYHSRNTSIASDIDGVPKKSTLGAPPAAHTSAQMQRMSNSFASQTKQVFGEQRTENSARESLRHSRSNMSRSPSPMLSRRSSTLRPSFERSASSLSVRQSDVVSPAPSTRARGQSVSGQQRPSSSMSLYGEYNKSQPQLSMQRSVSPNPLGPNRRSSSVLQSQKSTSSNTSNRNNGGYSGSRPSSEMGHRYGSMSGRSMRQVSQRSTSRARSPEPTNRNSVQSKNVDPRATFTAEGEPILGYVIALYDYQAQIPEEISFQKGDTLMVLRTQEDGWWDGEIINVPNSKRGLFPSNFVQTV

T3: full-length Fic1 (two-hybrid fusion) (S. pombe) (UniProt O94701)
T3 sequence: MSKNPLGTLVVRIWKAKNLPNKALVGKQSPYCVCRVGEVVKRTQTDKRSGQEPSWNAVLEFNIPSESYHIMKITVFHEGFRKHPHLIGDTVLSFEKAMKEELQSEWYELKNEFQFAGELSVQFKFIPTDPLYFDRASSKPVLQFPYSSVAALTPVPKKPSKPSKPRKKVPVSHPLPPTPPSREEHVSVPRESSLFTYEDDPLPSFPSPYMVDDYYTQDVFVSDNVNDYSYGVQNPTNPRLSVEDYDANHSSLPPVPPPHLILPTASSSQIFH

T4: Fic1-FLAG3 (S. pombe) (UniProt O94701)
T4 sequence: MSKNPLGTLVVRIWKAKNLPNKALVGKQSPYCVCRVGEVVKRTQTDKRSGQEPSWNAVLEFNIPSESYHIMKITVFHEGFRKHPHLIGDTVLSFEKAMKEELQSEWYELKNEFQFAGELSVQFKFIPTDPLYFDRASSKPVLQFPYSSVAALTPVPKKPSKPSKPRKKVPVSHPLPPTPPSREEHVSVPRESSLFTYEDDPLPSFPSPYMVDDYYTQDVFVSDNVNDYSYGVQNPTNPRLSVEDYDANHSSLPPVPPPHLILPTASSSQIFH


What was measured:
[1] = target: T1, Cdc15 SH3 (aa843–927) (S. pombe); experiment: two-hybrid; S. cerevisiae PJ69-4A co-transformed with bait and prey plasmids; interaction judged by growth on selective media lacking histidine and adenine
[2] = target: T2, Cdc15 (S. pombe (endogenous in S. pombe cells)); experiment: co-IP; anti-Cdc15 and anti-FLAG immunoprecipitates from S. pombe lysates (NP40 lysis buffer), blotted with anti-Cdc15 and/or anti-FLAG; cdc25-22 cells arrested in G2, nda3-KM311 cells arrested in prometaphase
[3] = target: T3, full-length Fic1 (two-hybrid fusion) (S. pombe); experiment: two-hybrid; S. cerevisiae PJ69-4A co-transformed with bait and prey plasmids; interaction judged by growth on selective media lacking histidine and adenine
[4] = target: T4, Fic1-FLAG3 (S. pombe); experiment: co-IP; anti-FLAG and anti-V5 immunoprecipitates from prometaphase-arrested S. pombe cells (NP40 lysis buffer), blotted with anti-FLAG and/or anti-V5

| Binder | binding [1] | binding [2] | other results |
| --- | --- | --- | --- |
| Fic1(aa190–269) P257A fragment (domain or fragment, UniProt O94701 190-269) RESSLFTYEDDPLPSFPSPYMVDDYYTQDVFVSDNVNDYSYGVQNPTNPRLSVEDYDANHSSLPPVPAPHLILPTASSSQ | no binding | – | – |
| Cyk3 SH3 (aa1–59) (domain or fragment, UniProt O14302 1-59) MSIPKQLPCMVRALYAWPGEREGDLKFTEGDLIECLSIGDGKWWIGRHINTNTQGIFPS | – | – | binding [3]: binds |
| S. pombe Cyk3 (protein, UniProt O14302 1-886) MSIPKQLPCMVRALYAWPGEREGDLKFTEGDLIECLSIGDGKWWIGRHINTNTQGIFPSNFVHCLDIPTVRPGSSMSRTSASSFRYSSPQKSSIDTPITSSDQGLTPDLVGSSNALNKPTRESDSLKHQKSHPMLNSLGSSLSLKKSVSRPPSSMSRTNLDVSSRWDNTADNDSQIDAQDLSRSTPSPLRSAMENVLQSLNAMGKKSFSRANSPLLRLTKSTTTSKETDFIPVPPAHGSTSMTSRSKLDDSTDNSSKPRTSLQPGESPMKSSRDISRKPSMASSVLSPSDYFPQHRRFQSAPAPIPRPVSTLIPLTQVRTTASNVIKPRPQTTERPSTAQSFRKGGGFLKKTFKKLLRRGSSKRKPSLQPTPPVSYPAHNVPQKGVRPASPHTLKSVKDDLKRTKTYTKAEFAAKREEIFNKLSMPVYEPLKDLSECIGNVLADGEPVQFSVGTNIHNMNFSAIDKQIRSIIPQRVQVSPAVLAKNYLAPGQTTALAQMRAVFIYISERITFTNQTLDNDELRTSTQVISEGQGTPFEVALLVKEMLQALDLWCEVIEGYLKSPDDIYYTRDININHAWNVVTFDNEVRLIDASFASPTHPQQALKSSSSNDFYFLMKPNECIFTHVPENPDQQFIMPDLSMPIVMALPWVSSVYFTLGLKLRKFNTSILHLNDLEVLQIEFLAPKDIECVAEVDALSALAPTADVSQCYKYTLTQAFWETPDIRVMRVKAVMPANNRAAVLRIYAGRLGVSSPVRTAPHPMAMSLPFVHHGKNKALEFVTRHPVPHCPSVDLYINSPQCGTLHSGVEYKFNVSAYACQPSTSISNTRLAIQTPTGNIVRLREERSGNGVIFFSLSLTINETGEYRALILAEKIGRWVVYATWQAV | – | – | binding [4]: binds |

Continued, in another order:

| binding [1] | binding [2] | Binder | other results |
| --- | --- | --- | --- |
| binds | – | wild-type Fic1(aa190–269) fragment (domain or fragment, UniProt O94701 190-269) RESSLFTYEDDPLPSFPSPYMVDDYYTQDVFVSDNVNDYSYGVQNPTNPRLSVEDYDANHSSLPPVPPPHLILPTASSSQ | – |
| – | binds | Fic1-FLAG3 (protein, UniProt O94701 1-272) MSKNPLGTLVVRIWKAKNLPNKALVGKQSPYCVCRVGEVVKRTQTDKRSGQEPSWNAVLEFNIPSESYHIMKITVFHEGFRKHPHLIGDTVLSFEKAMKEELQSEWYELKNEFQFAGELSVQFKFIPTDPLYFDRASSKPVLQFPYSSVAALTPVPKKPSKPSKPRKKVPVSHPLPPTPPSREEHVSVPRESSLFTYEDDPLPSFPSPYMVDDYYTQDVFVSDNVNDYSYGVQNPTNPRLSVEDYDANHSSLPPVPPPHLILPTASSSQIFH | – |
| – | no binding | Fic1-P257A-FLAG3 (protein, UniProt O94701 1-272) MSKNPLGTLVVRIWKAKNLPNKALVGKQSPYCVCRVGEVVKRTQTDKRSGQEPSWNAVLEFNIPSESYHIMKITVFHEGFRKHPHLIGDTVLSFEKAMKEELQSEWYELKNEFQFAGELSVQFKFIPTDPLYFDRASSKPVLQFPYSSVAALTPVPKKPSKPSKPRKKVPVSHPLPPTPPSREEHVSVPRESSLFTYEDDPLPSFPSPYMVDDYYTQDVFVSDNVNDYSYGVQNPTNPRLSVEDYDANHSSLPPVPAPHLILPTASSSQIFH | – |
